Results reported in article PMC9405123, “Design, Synthesis and Mechanistic Studies of Novel Isatin-Pyrazole Hydrazone Conjugates as Selective and Potent Bacterial MetAP Inhibitors” (Antibiotics, 2022).
Values after ≈ are worked out from the molar mass of the structure shown.

What was measured:
SpMetAP1a = SpMetAP1a (Streptococcus pneumoniae, UniProt Q8DPV1); test: MetAP enzyme inhibition, Morrison Ki (Met-AMC fluorescence); assay type: biochemical; conditions: Morrison Ki method
E. faecalis [1] = test: Growth inhibition screening (broth dilution); assay type: cell-based, Enterococcus faecalis
Experimental: (§1) In vitro screening of the compounds (PS1–14) was performed to assess the antibacterial activity against three Gram-positive (Staphylococcus aureus, Enterococcus faecalis and Bacillus subtilis,) and three Gram-negative (Pseudomonas aeruginosa, Klebsiella pneumonia and Escherichia coli) bacterial strains using the standard NCCLS broth dilution assay. The study’s standard drugs were ciprofloxacin (CIP) and ampicillin (AMP). Compounds were dissolved in a polar solvent (DMSO) and distributed into a 96-well plate in 200 µL of nutrient broth medium, with a final concentration of the compounds […] in each well. The bacterial cells (about 2.5 × 10^5 cells/mL) were inoculated into each well and incubated at 37 °C overnight. After incubation, the growth was measured by turbidity of the culture at 590 nm by spectrophotometer.

S. aureus = test: Growth inhibition screening (broth dilution); assay type: cell-based, Staphylococcus aureus
Experimental: as §1

P. aeruginosa [2] = test: Minimum inhibitory concentration (broth dilution); assay type: cell-based; conditions: Pseudomonas aeruginosa, alone
K. pneumoniae [3] = test: Minimum inhibitory concentration (broth dilution); assay type: cell-based, Klebsiella pneumonia; conditions: Klebsiella pneumoniae, alone
B. subtilis = test: Minimum bactericidal concentration; assay type: cell-based, Bacillus subtilis
K. pneumoniae [4] = test: Minimum bactericidal concentration; assay type: cell-based, Klebsiella pneumonia; conditions: Klebsiella pneumoniae
K. pneumoniae [5] = test: Growth kinetics; assay type: cell-based, Klebsiella pneumonia
Experimental: Bacterial strains were tested as mentioned in Habib et al.. Briefly, ½ MIC, MIC and 2MIC values of PS9 were taken to assess the growth of bacterial strains whereas untreated cells and media were taken as positive and negative control, respectively.

K. pneumoniae [6] = test: Time-kill curve assay; assay type: cell-based, Klebsiella pneumonia
Experimental: (§2) A time–kill curve study was performed against bacterial strains (E. coli, E. faecalis, K. pneumonia and P. aeruginosa) to determine whether compound PS9 is bactericidal or bacteriostatic. MIC, 2MIC and 4MIC concentrations were employed for the time–kill assay as explained by Ali et al.. Untreated bacterial cells were used as a control. 100 µL aliquot was taken from each flask at regular intervals. An aliquot was further diluted in phosphate buffer saline solution and from each concentration 50 µL aliquot was inoculated on a nutrient agar plate and spread. Colonies were counted after the incubation of the plate at 37 °C. For each strain, the average (mean) colony count data (log10 CFU/mL) was plotted against time.

P. aeruginosa [7] = test: Time-kill curve assay; assay type: cell-based, Pseudomonas aeruginosa
Experimental: as §2

[8] = system: human red blood cells (hRBCs); test: Hemolytic activity; assay type: cell-based; conditions: up to 31.25 µg/mL; 37 °C, 2 h
Experimental: The compound PS9 was evaluated for hemolytic effect on human RBCs. In brief, RBCs suspension 10% (v/v) cleaned with 1 × PBS and resuspended again in 1 × PBS (pH 7.4). […] The samples were centrifuged and absorbance of the supernatant was taken at 415 nm to obtain the percentage of RBCs lysis. Triton X-100 with 1% (v/v) was used as a positive control. Percentage of RBCs lysis was calculated as:% RBCs lysis = (OD415nm sample − OD415nm PBS)/(OD415nm Triton X-100 1% − OD415nm PBS)(1)

HK41 = test: MBC on environmental MDR isolate
HK43 = test: MBC on environmental MDR isolate
LG20 = test: MBC on environmental MDR isolate; conditions: Enterobacter
E. faecalis [9] = test: Combination study with AMP or CIP
P. aeruginosa [10] = test: Combination study with AMP or CIP
E. coli = test: Combination study with AMP or CIP
JST68 = test: MIC on environmental MDR isolate (microdilution); conditions: Escherichia coli
JST71 = test: MIC on environmental MDR isolate (microdilution); conditions: isolate JST71 Enterobacter sp.
SD5 = test: MIC on environmental MDR isolate (microdilution); conditions: isolate SD5 E. coli
SD6 = test: MIC on environmental MDR isolate (microdilution); conditions: isolate SD6 E. coli

O=C1Nc2ccc(F)cc2/C1=N\NC(=O)c1cc(-c2cccc(Br)c2)n[nH]1 [PS9, (E)-3-(3-Bromophenyl)-N′-(5-Fluoro-2-Oxoindolin-3-Ylidene)-1H-Pyrazole-5-Carbohydrazide]
Ki (SpMetAP1a): 0.37 ± 0.08 µM | inhibition at 250 µg/mL (E. faecalis [1]; Enterococcus faecalis): ≥ 94% | % Growth Inhibition at 250 µg/mL (E. faecalis [1]; listed as C00009): 100% | inhibition at 250 µg/mL (S. aureus; Staphylococcus aureus): ≥ 94% | % Growth Inhibition at 250 µg/mL (S. aureus; listed as C00009): 100% | MIC (P. aeruginosa [2]): 8 mg/L (≈ 18.7 µM) | MIC (K. pneumoniae [3]): 8 mg/L (≈ 18.7 µM) | MBC/MIC Ratio (R*) (B. subtilis; B. subtilis): 4 | MBC (B. subtilis; Bacillus subtilis): 128 mg/L (≈ 299 µM) | MBC (K. pneumoniae [4]): 8 mg/L (≈ 18.7 µM) | growth (K. pneumoniae [5]; 2MIC): no growth was observed in both cultures at 2MIC concentration till 24 h | growth (K. pneumoniae [5]; MIC): no significant growth was found at MIC up to 10 h | killing (log10 CFU/mL with time) (K. pneumoniae [6]; 4MIC, after 16 h): significant eradication | killing (log10 CFU/mL with time) (K. pneumoniae [6]; MIC, till 16 h): no 100% eradication | killing (log10 CFU/mL with time) (P. aeruginosa [7]; 4MIC, after 16 h): significant eradication | killing (log10 CFU/mL with time) (P. aeruginosa [7]; MIC, till 16 h): no 100% eradication | lysis in RBCs [8]: no significant lysis | MBC (HK41; Enterobacter cloacae): 64 mg/L (≈ 149 µM) | MBC and MIC ratio (HK41; isolate HK41): 2 | MBC (HK43; Exiguobacterium mexicanum): 32 mg/L (≈ 74.7 µM) | MBC and MIC ratio (HK43; isolate HK43): 2 | MBC (LG20): 16 mg/L (≈ 37.4 µM) | MIC in Combination (E. faecalis [9]; combination PS9 + AMP): 0.5 mg/L | MIC in Combination (E. faecalis [9]; combination PS9 + CIP): 8 mg/L | FICI (E. faecalis [9]; combination with AMP): 0.09 | FICI (E. faecalis [9]; combination with CIP): 2.00 | MIC in Combination (P. aeruginosa [10]; combination PS9 + AMP): 1 mg/L | MIC in Combination (P. aeruginosa [10]; combination PS9 + CIP): 2 mg/L | FICI (P. aeruginosa [10]; combination with AMP): 0.37 | FICI (P. aeruginosa [10]; combination with CIP): 0.28 | MIC in Combination (E. coli; combination PS9 + AMP): 4 mg/L | MIC in Combination (E. coli; combination PS9 + CIP): 8 mg/L | FICI (E. coli; combination with AMP): 0.50 | FICI (E. coli; combination with CIP): 0.50 | MIC (JST68): 32 mg/L (≈ 74.7 µM) | MIC (JST71): >1024 mg/L | MIC (SD5): >1024 mg/L | MIC (SD6): >1024 mg/L
